Test results reported in PMC10600341.
No constants are given. Whether binding was seen depends on the method and setting. In cells and extracts the contact can be indirect. Some binding calls cover weakened binding; strength is not graded here. For some assays here: Tags and fused reporters may be left off the sequences shown.

Legend:
[1] = biological target: T1, 3xFLAG-HA tagged wild-type STRA8 (stimulated by retinoic acid 8) (mouse) (UniProt P70278); assay: co-IP; tandem affinity purification with anti-FLAG M2 beads (elution with 3xFLAG peptide) and then anti-HA beads from chromatin-bound testis extracts of 10 to 12-day old knock-in mice; washes with high salt extraction buffer (400 mM KCl); western blot; non-tagged wild-type testis as negative …
T1 sequence: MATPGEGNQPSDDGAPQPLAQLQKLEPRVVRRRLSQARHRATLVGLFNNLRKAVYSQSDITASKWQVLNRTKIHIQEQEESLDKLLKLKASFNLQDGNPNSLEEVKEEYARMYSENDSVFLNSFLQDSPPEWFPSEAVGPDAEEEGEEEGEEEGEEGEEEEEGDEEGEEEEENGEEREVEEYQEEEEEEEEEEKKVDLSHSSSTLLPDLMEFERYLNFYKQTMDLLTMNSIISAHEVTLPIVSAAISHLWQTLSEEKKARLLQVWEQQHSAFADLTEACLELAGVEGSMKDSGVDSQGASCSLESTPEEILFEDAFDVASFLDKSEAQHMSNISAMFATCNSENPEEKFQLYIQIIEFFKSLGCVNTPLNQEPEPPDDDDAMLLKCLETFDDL

[2] = biological target: T2, Retinoblastoma protein RB1 (mouse (endogenous in testis)) (UniProt P13405); assay: co-IP; anti-FLAG IP product from Stra8 wt-3FH KI testes (10 to 11-day-old) subjected to a second IP with anti-RB1 antibody crosslinked to protein A-Dynabeads; control rabbit IgG; immunoblot
T2 sequence: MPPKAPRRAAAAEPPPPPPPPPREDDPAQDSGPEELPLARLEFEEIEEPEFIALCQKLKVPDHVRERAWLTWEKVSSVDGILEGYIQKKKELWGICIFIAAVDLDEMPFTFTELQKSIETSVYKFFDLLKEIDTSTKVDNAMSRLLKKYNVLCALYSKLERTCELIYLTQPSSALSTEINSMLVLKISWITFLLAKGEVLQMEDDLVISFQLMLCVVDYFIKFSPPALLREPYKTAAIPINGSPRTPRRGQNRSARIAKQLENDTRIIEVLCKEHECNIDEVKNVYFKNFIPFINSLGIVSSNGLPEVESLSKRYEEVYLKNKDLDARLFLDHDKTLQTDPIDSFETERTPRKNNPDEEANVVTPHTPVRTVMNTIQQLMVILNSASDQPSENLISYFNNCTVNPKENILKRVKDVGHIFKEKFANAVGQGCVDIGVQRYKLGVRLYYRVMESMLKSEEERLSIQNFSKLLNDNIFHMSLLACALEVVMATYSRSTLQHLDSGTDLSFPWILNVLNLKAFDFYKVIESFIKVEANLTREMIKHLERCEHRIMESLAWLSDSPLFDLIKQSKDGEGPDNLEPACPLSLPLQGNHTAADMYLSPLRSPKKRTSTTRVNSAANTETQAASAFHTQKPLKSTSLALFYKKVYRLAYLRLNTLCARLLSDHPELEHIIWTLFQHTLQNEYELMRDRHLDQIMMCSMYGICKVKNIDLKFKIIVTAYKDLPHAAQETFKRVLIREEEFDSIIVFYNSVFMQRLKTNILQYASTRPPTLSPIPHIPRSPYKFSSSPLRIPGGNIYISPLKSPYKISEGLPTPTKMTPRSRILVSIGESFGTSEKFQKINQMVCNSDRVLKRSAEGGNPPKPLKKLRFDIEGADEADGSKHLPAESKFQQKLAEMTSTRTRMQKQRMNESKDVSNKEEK

[3] = biological target: T3, Retinoblastoma protein RB1 (mouse (endogenous in testis)), P13405; assay: as above; conditions: remark: other sources report otherwise
T3 chain: T2 sequence

B1: Retinoblastoma protein RB1 (protein, UniProt P13405 1-921)
chain: T2 sequence
**Q.** How did the binding [1] turn out when B1 was run?
**A.** binds

B2: p107/RB-Like1 (protein, UniProt Q64701 1-1063)
chain: MFEDEPHAEGAAAVAAAREALQALCQELNLDEGSAAEALDDFTAIRGNYSLEGEVIHWLACSLYVACRKSIIPTVGKGVMEGNCVSLTRILRSAKLSLIQFFSKMKKWMDMSNLPQEFRERIERLERNFEVSTVIFKKFEPIFLDIFQNPYEEPPKLPRSRKQRRIPCSVKDLFNFCWTLFVYTKGNFRMIGDDLVNSYHLLLCCLDLIFANAIMCPNRRDLLNPSFKGLPSDFHAPDFKAAEEPPCIIAVLCDLHDGLLVEAKGIKEHYFKPYISKLFDKKILKGECLLDLSSFTDNSKAVNKEYEEYVLTVGDFDERIFLGADAEEEIGTPRKFTADTPFGKLTSQASVECNLQQHFEKKRSFAPSTPLTGRRYLQEKEAVTTPVASATQSVSRLQSIVAGLKSAPSEQLLNIFESCMRNPMGNIIKIVKGIGETFCQHYTQSTDKQPGSHIDFAVNRLKLAEILYYKILETIMVQETRRLHGMDMSVLLEQDIFHKSLMACCLEIVLFAYSSPRTFPWIIEVLDLQPFYFYKVIEVVIRSEEGLSRDMVKHLNSIEEQILESLAWTNNSALWEALHASANRVPSCEEVIFPNNFEIGNGGNVQGHLPMMPMSPIIHPRVKEVRTDSGSLRQDMQPLSPISVHERYSSPAAGSAKRRLFGDDPPKDTLMDKIMAEGTKLKIAPSSVTAESLSISPGQALLTMATTTVTGTTGRKVTVPLHGIANDAGEITLVPISMNPTQESTAESPVSLTAQSLIGTSPKQTHLTKAQDAHLTGVSKPKRTGSLALFYRKVYHLASVRLRDLCLKLDVSNELRRKIWTCFEFTLVHCPDLMKDRHLDQLLLCAFYIMAKVTKEERTFQEIMKSYRNQPQANSHVYRSVLLKSIPGGVVVYNGDCEMTDGDIEDATKTPNCSSEPVKEERGDLIKFYNTVYVGRVKSFALKYDLSNQDHIMDAPPLSPFPHIKQQPGSPRRISQQHSLYVSPHKNGAGLTPRSALLYKFNGSPSKSLKDINNMIRQGEQKTKKRVIAISGDADSPAKRLCQENDDVLLKRLQDVVSERANH
**Q.** With B2 as the binder, how does the binding [1] read?
**A.** binds

B3: meiosis initiator (MEIOSIN) (protein, UniProt A0A5K7RLP0 1-589)
chain: MLGSDKFSCFSDQHRARSPSPTDRKDKKNHTNKLRELALLIPVTMKTRDKKYTKKEILLRVLHYIQYLQRNIDMTKALLKLHSSNGKGRFVGPGLNPSAGQTQQQHSTPSSSQKPSLWSTSSKPRKKKFTRVSEHPSWPYNPRRSLALDQAENPNTIHPGLKEENEECATYPGVLSPSTYPTTEPSVSEGDGQGAQLVFLDMAQNIFAYDILSDHAVEVQGGEPNADIKVQRSFFLTRAQPCVSSCRQKLFLCTSSEADKEAPDSDPWLPVWTSEDSPNGSPLALGSSQINTWHVADYLNEILGVSSSLFSSPSKILPDHVLEDGTYFLTEGLLESSPATCEVESPQEKEVSSEGPTGPPNFQSSVSLDHCYLSLSENVKVLSNCGSSSESTDTESLWGQEEVRGVATYPRRTGVFSLAQPSVLQQANPEGLQTSSDEDRDYTWTPTGQSSGLPVASKKIKKVQASQGPVKPKDSRKACPGQVKKKCVNGFIMFCRMNRKQYIRACPGTASTAATKDLAQLWRGMTLEEKKPYCTKARRFSRQNNRIVKQENSSSEDDDGETPKPFYQLLAEKAQVSLGLTSLPTPNCQ
**Q.** B3 was tested. Which binding [1] did it give?
**A.** binds

B4: 3xFLAG-HA tagged wild-type STRA8 (stimulated by retinoic acid 8) (protein, UniProt P70278 1-393)
chain: T1 sequence
**Q.** With B4 as the binder, how does the binding [2] read?
**A.** binds

B5: meiosis initiator (MEIOSIN), A0A5K7RLP0 1-589 (protein)
chain: B3 chain
**Q.** How did the binding [3] turn out when B5 was run?
**A.** no binding
